Data on seven variants can be found in the supplement of paper PMC12217912.

The other results are listed elsewhere or left out. Sequences were assembled here from the parent chain. Values near 0.05 are background.

Sequences and labels used below:
B1: TEV protease; numbered along this chain (parent)
chain: MGESLFKGPRDYNPISSSICHLTNESDGHTTSLYGIGFGPFIITNKHLFRRNNGTLVVQSLHGVFKVKDTTTLQQHLVDGRDMIIIRMPKDFPPFPQKLKFREPQREERICLVTTNFQTKSMSSMVSDTSCTFPSGDGIFWKHWIQTKDGQCGSPLVSTRDGFIVGIHSASNFTNTNNYFTSVPKNFMELLTNQEAQQWVSGWRLNADSVLWGGHKVFMVKPEEPFQPVKEATQL
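Further: Bxb1 expression induced with 0.2% (w/v) L-rhamnose at OD600 near 0.5, cultures sampled hourly, flipped fraction per protease–substrate barcode pair counted by paired-end Illumina sequencing.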

The variants in this assay derive from B1. The assay is described as follows: raw area under fraction-flipped curve 0-4 h after induction (AUC4h, not background-subtracted), DNA-recorder readout of cleavage of the substrate (dimensionless); higher = more cleavage of the substrate by the protease variant. To be noted: temperature: 34 °C; time window: 0-4 h after rhamnose induction.
As to C131L, the “area with substrate ENLWFQS” value was 0.0755.

For the variant G138E, the “area with substrate ENLKFQS” value was 0.0565, the “area with substrate ENLNFQS” value came to 0.0735, the “area with substrate ENLPFQS” value came to 0.0452 and the “area with substrate ENLSFQS” value was determined as 0.0723. Further, the “area with substrate ENLTFQS” value was determined as 0.0547.

T159W: the “area with substrate ENLKFQS” value is 0.0745, the “area with substrate ENLMFQS” value was 0.069 and the “area with substrate ENLSFQS” value worked out at 0.0647.

Consider F95Q, for which the “area with substrate ENLKFQS” value came out at 0.0687, the “area with substrate ENLLFQS” value worked out at 0.0641 and the “area with substrate ENLPFQS” value was 0.0471.

Turning to Q97V, the “area with substrate ENLIFQS” value was found to be 0.0698 and the “area with substrate ENLKFQS” value came out at 0.0685.

In the case of G213E, the “area with substrate ENLHFQS” value is 0.0592, the “area with substrate ENLRFQS” value was 0.0616 and the “area with substrate ENLWFQS” value amounted to 0.0721.

Regarding S201F, the “area with substrate ENLKFQS” value is 0.0597 and the “area with substrate ENLSFQS” value came out at 0.073.
